# Assay results published in the supplement of paper PMC8728848.
# Some of the results follow.
# B1: SEX4 (Arabidopsis thaliana), Q944A8 (protein)
# chain: TQAMGAVLTYRHELGMNYNFIRPDLIVGSCLQTPEDVDKLRKIGVKTIFCLQQDPDLEYFGVDISSIQAYAKKYSDIQHIRCEIRDFDAFDLRMRLPAVVGTLYKAVKRNGGVTYVHCTAGMGRAPAVALTYMFWVQGYKLMEAHKLLMSKRSCFPKLDAIRNATIDILTGLKRKTVTLTLKDKGFSRVEISGLDIGWGQRIPLTLGKGTGFWILKRELPEGQFEYKYIIDGEWTHNEAEPFIGPNKDGHTNNYAKVVDDPTSVDGTTRERLSSEDPELLEEERSKLIQFLETCSEAEV
# Key:
# Assay in all cases: glycan array binding signal (z-score within array); higher = stronger binding
# Details in all cases: glycan notation: IUPAC condensed, linker removed
# [1] = molecular target: GlcNAc(b1-6)Gal(b1-4)GlcNAc
# How it was run: (§1)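 The binding signal is a Z-score computed within each array. Data were drawn from 3228 arrays in the Consortium for Functional Glycomics database, restricted to those with a known protein sequence. Scores were averaged over arrays of the same protein sequence at different concentrations or buffers, and over linkers, and negative values can be taken as non-binding.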
# GlcNAc(b1-6)GalNAc = molecular target: GlcNAc(b1-6)GalNAc
# How it was run: as §1
# GlcNAc3Prop(b1-4)GlcNAc = molecular target: GlcNAc3Prop(b1-4)GlcNAc
# How it was run: as §1
# [2] = molecular target: GlcNAc6S(b1-3)Gal(b1-4)GlcNAc
# How it was run: as §1
# Kdn(a2-3)Gal(b1-3)GalNAc = molecular target: Kdn(a2-3)Gal(b1-3)GalNAc
# How it was run: as §1
# Kdn(a2-3)Gal(b1-3)GlcNAc = molecular target: Kdn(a2-3)Gal(b1-3)GlcNAc
# How it was run: as §1
# Kdn(a2-3)Gal(b1-4)Glc = molecular target: Kdn(a2-3)Gal(b1-4)Glc
# How it was run: as §1
# Kdn(a2-3)Gal(b1-4)GlcNAc = molecular target: Kdn(a2-3)Gal(b1-4)GlcNAc
# How it was run: as §1
# [3] = molecular target: Kdn(a2-3)Gal(b1-4)[Fuc(a1-3)]GlcNAc
# How it was run: as §1
# Kdn(a2-6)Gal(b1-4)GlcNAc = molecular target: Kdn(a2-6)Gal(b1-4)GlcNAc
# How it was run: as §1
# [4] = molecular target: Man(a1-2)Man(a1-2)Man(a1-3)Man
# How it was run: as §1
# [5] = molecular target: Man(a1-2)Man(a1-2)Man(a1-6)[Man(a1-3)]Man
# How it was run: as §1
# Man(a1-2)Man(a1-3)Man = molecular target: Man(a1-2)Man(a1-3)Man
# How it was run: as §1
# [6] = molecular target: Man(a1-2)Man(a1-3)[Man(a1-2)Man(a1-6)]Man
# How it was run: as §1
# [7] = molecular target: Man(a1-2)Man(a1-3)[Man(a1-2)Man(a1-6)]Man(a1-6)[Man(a1-2)Man(a1-2)Man(a1-3)]Man
# How it was run: as §1
# [8] = molecular target: Man(a1-2)Man(a1-3)[Man(a1-2)Man(a1-6)]Man(a1-6)[Man(a1-2)Man(a1-2)Man(a1-3)]Man(b1-4)GlcNAc(b1-4)GlcNAc
# How it was run: as §1
# [9] = molecular target: Man(a1-2)Man(a1-3)[Man(a1-6)]Man(a1-6)[Man(a1-2)Man(a1-3)]Man(b1-4)GlcNAc(b1-4)GlcNAc
# How it was run: as §1
# [10] = molecular target: Man(a1-2)Man(a1-6)[Man(a1-3)]Man(a1-6)[Man(a1-2)Man(a1-2)Man(a1-3)]Man
# How it was run: as §1
# [11] = molecular target: Man(a1-2)Man(a1-6)[Man(a1-3)]Man(a1-6)[Man(a1-2)Man(a1-2)Man(a1-3)]Man(b1-4)GlcNAc(b1-4)GlcNAc
# How it was run: as §1
# Man(a1-3)[Man(a1-6)]Man = molecular target: Man(a1-3)[Man(a1-6)]Man
# How it was run: as §1
# [12] = molecular target: Man(a1-3)[Man(a1-6)]Man(a1-6)[Man(a1-2)Man(a1-3)]Man(b1-4)GlcNAc(b1-4)GlcNAc
# How it was run: as §1
# [13] = molecular target: Man(a1-3)[Man(a1-6)]Man(a1-6)[Man(a1-3)]Man
# How it was run: as §1
# [14] = molecular target: Man(a1-3)[Man(a1-6)]Man(a1-6)[Man(a1-3)]Man(b1-4)GlcNAc(b1-4)GlcNAc
# How it was run: as §1
# [15] = molecular target: Man(a1-3)[Man(a1-6)]Man(b1-4)GlcNAc(b1-4)GlcNAc
# How it was run: as §1
# Man(a1-6)Man = molecular target: Man(a1-6)Man
# How it was run: as §1
# Man(b1-4)GlcNAc = molecular target: Man(b1-4)GlcNAc
# How it was run: as §1
# Neu5Ac(a2-3)Gal = molecular target: Neu5Ac(a2-3)Gal
# How it was run: as §1
# [16] = molecular target: Neu5Ac(a2-3)Gal(b1-3)GalNAc
# How it was run: as §1
# [17] = molecular target: Neu5Ac(a2-3)Gal(b1-3)GalNAc(b1-3)Gal(a1-4)Gal(b1-4)Glc
# How it was run: as §1
# [18] = molecular target: Neu5Ac(a2-3)Gal(b1-3)GalNAc(b1-4)[Neu5Ac(a2-3)]Gal(b1-4)Glc
# How it was run: as §1
# [19] = molecular target: Neu5Ac(a2-3)Gal(b1-3)GalNAc(b1-4)[Neu5Ac(a2-8)Neu5Ac(a2-3)]Gal(b1-4)Glc
# How it was run: as §1
# [20] = molecular target: Neu5Ac(a2-3)Gal(b1-3)GalNAc6S
# How it was run: as §1
# [21] = molecular target: Neu5Ac(a2-3)Gal(b1-3)GlcNAc
# How it was run: as §1
# [22] = molecular target: Neu5Ac(a2-3)Gal(b1-3)GlcNAc(b1-2)Man(a1-3)[Neu5Ac(a2-3)Gal(b1-3)GlcNAc(b1-2)Man(a1-6)]Man(b1-4)GlcNAc(b1-4)GlcNAc
# How it was run: as §1
# [23] = molecular target: Neu5Ac(a2-3)Gal(b1-3)GlcNAc(b1-3)Gal(b1-3)GlcNAc
# How it was run: as §1
# [24] = molecular target: Neu5Ac(a2-3)Gal(b1-3)GlcNAc(b1-3)Gal(b1-4)GlcNAc
# How it was run: as §1
# [25] = molecular target: Neu5Ac(a2-3)Gal(b1-3)GlcNAc(b1-3)GalNAc
# How it was run: as §1
# [26] = molecular target: Neu5Ac(a2-3)Gal(b1-3)GlcNAc6S
# How it was run: as §1
# [27] = molecular target: Neu5Ac(a2-3)Gal(b1-3)[Fuc(a1-4)]GlcNAc
# How it was run: as §1
# [28] = molecular target: Neu5Ac(a2-3)Gal(b1-3)[Fuc(a1-4)]GlcNAc(b1-3)Gal(b1-3)[Fuc(a1-4)]GlcNAc
# How it was run: as §1
# [29] = molecular target: Neu5Ac(a2-3)Gal(b1-3)[Fuc(a1-4)]GlcNAc(b1-3)Gal(b1-4)[Fuc(a1-3)]GlcNAc
# How it was run: as §1
# [30] = molecular target: Neu5Ac(a2-3)Gal(b1-3)[Neu5Ac(a2-3)Gal(b1-4)]GlcNAc
# How it was run: as §1
# [31] = molecular target: Neu5Ac(a2-3)Gal(b1-3)[Neu5Ac(a2-6)]GalNAc
# How it was run: as §1
# Neu5Ac(a2-3)Gal(b1-4)Glc = molecular target: Neu5Ac(a2-3)Gal(b1-4)Glc
# How it was run: as §1
# [32] = molecular target: Neu5Ac(a2-3)Gal(b1-4)GlcNAc
# How it was run: as §1
# [33] = molecular target: Neu5Ac(a2-3)Gal(b1-4)GlcNAc(b1-2)Man(a1-3)[GlcNAc(b1-2)Man(b1-4)GlcNAc(b1-2)Man(a1-6)]Man(b1-4)GlcNAc(b1-4)GlcNAc
# How it was run: as §1
# [34] = molecular target: Neu5Ac(a2-3)Gal(b1-4)GlcNAc(b1-2)Man(a1-3)[Neu5Ac(a2-6)Gal(b1-4)GlcNAc(b1-2)Man(a1-6)]Man(b1-4)GlcNAc(b1-4)GlcNAc
# How it was run: as §1
# [35] = molecular target: Neu5Ac(a2-3)Gal(b1-4)GlcNAc(b1-3)Gal
# How it was run: as §1
# [36] = molecular target: Neu5Ac(a2-3)Gal(b1-4)GlcNAc(b1-3)Gal(b1-3)GlcNAc
# How it was run: as §1
# [37] = molecular target: Neu5Ac(a2-3)Gal(b1-4)GlcNAc(b1-3)Gal(b1-4)GlcNAc
# How it was run: as §1
# [38] = molecular target: Neu5Ac(a2-3)Gal(b1-4)GlcNAc(b1-3)Gal(b1-4)GlcNAc(b1-3)Gal(b1-4)GlcNAc
# How it was run: as §1
# [39] = molecular target: Neu5Ac(a2-3)Gal(b1-4)GlcNAc(b1-3)Gal(b1-4)[Fuc(a1-3)]GlcNAc
# How it was run: as §1
# [40] = molecular target: Neu5Ac(a2-3)Gal(b1-4)GlcNAc(b1-3)GalNAc
# How it was run: as §1
# [41] = molecular target: Neu5Ac(a2-3)Gal(b1-4)GlcNAc(b1-6)[Gal(b1-3)]GalNAc
# How it was run: as §1
# [42] = molecular target: Neu5Ac(a2-3)Gal(b1-4)GlcNAc(b1-6)[Neu5Ac(a2-3)Gal(b1-3)]GalNAc
# How it was run: as §1
# [43] = molecular target: Neu5Ac(a2-3)Gal(b1-4)GlcNAc6S
# How it was run: as §1
# [44] = molecular target: Neu5Ac(a2-3)Gal(b1-4)[Fuc(a1-3)]GlcNAc
# How it was run: as §1
# [45] = molecular target: Neu5Ac(a2-3)Gal(b1-4)[Fuc(a1-3)]GlcNAc(b1-3)Gal
# How it was run: as §1
binder,measurement,setting,value
B1,glycan array binding signal (z-score),[1],-0.512
same,glycan array binding signal (z-score),GlcNAc(b1-6)GalNAc,-0.365
same,glycan array binding signal (z-score),GlcNAc3Prop(b1-4)GlcNAc,-0.353
same,glycan array binding signal (z-score),[2],0.949
same,glycan array binding signal (z-score),Kdn(a2-3)Gal(b1-3)GalNAc,0.126
same,glycan array binding signal (z-score),Kdn(a2-3)Gal(b1-3)GlcNAc,-0.15
same,glycan array binding signal (z-score),Kdn(a2-3)Gal(b1-4)Glc,-0.402
same,glycan array binding signal (z-score),Kdn(a2-3)Gal(b1-4)GlcNAc,0.514
same,glycan array binding signal (z-score),[3],-0.395
same,glycan array binding signal (z-score),Kdn(a2-6)Gal(b1-4)GlcNAc,-0.36
same,glycan array binding signal (z-score),[4],-0.265
same,glycan array binding signal (z-score),[5],0.008
same,glycan array binding signal (z-score),Man(a1-2)Man(a1-3)Man,-0.463
same,glycan array binding signal (z-score),[6],0.147
same,glycan array binding signal (z-score),[7],-0.337
same,glycan array binding signal (z-score),[8],-0.534
same,glycan array binding signal (z-score),[9],0.099
same,glycan array binding signal (z-score),[10],0.144
same,glycan array binding signal (z-score),[11],-0.379
same,glycan array binding signal (z-score),Man(a1-3)[Man(a1-6)]Man,-0.527
same,glycan array binding signal (z-score),[12],0.025
same,glycan array binding signal (z-score),[13],-0.426
same,glycan array binding signal (z-score),[14],0.825
same,glycan array binding signal (z-score),[15],0.176
same,glycan array binding signal (z-score),Man(a1-6)Man,-0.377
same,glycan array binding signal (z-score),Man(b1-4)GlcNAc,-0.294
same,glycan array binding signal (z-score),Neu5Ac(a2-3)Gal,-0.442
same,glycan array binding signal (z-score),[16],-0.334
same,glycan array binding signal (z-score),[17],-0.271
same,glycan array binding signal (z-score),[18],-0.249
same,glycan array binding signal (z-score),[19],0.161
same,glycan array binding signal (z-score),[20],0.306
same,glycan array binding signal (z-score),[21],-0.569
same,glycan array binding signal (z-score),[22],0.628
same,glycan array binding signal (z-score),[23],0.056
same,glycan array binding signal (z-score),[24],-0.336
same,glycan array binding signal (z-score),[25],2.39
same,glycan array binding signal (z-score),[26],-0.48
same,glycan array binding signal (z-score),[27],-0.212
same,glycan array binding signal (z-score),[28],-0.352
same,glycan array binding signal (z-score),[29],0.033
same,glycan array binding signal (z-score),[30],0.518
same,glycan array binding signal (z-score),[31],0.021
same,glycan array binding signal (z-score),Neu5Ac(a2-3)Gal(b1-4)Glc,-0.294
same,glycan array binding signal (z-score),[32],-0.512
same,glycan array binding signal (z-score),[33],0.164
same,glycan array binding signal (z-score),[34],-0.488
same,glycan array binding signal (z-score),[35],-0.415
same,glycan array binding signal (z-score),[36],-0.227
same,glycan array binding signal (z-score),[37],-0.479
same,glycan array binding signal (z-score),[38],0.125
same,glycan array binding signal (z-score),[39],-0.017
same,glycan array binding signal (z-score),[40],0.068
same,glycan array binding signal (z-score),[41],0.139
same,glycan array binding signal (z-score),[42],0.177
same,glycan array binding signal (z-score),[43],-0.329
same,glycan array binding signal (z-score),[44],-0.301
same,glycan array binding signal (z-score),[45],0.672
